# Measurements taken from paper PMC4336329 (PLoS ONE, 2015).
# About 14,000 (4.5%) of roughly 310,000 compounds showed an effect of 50% or more. Effects have a minus sign here. Some of the results follow.
# Molecular target: human ether-à-go-go-related gene (hERG) potassium channel (human, UniProt Q12809)
# Test: primary screen, population patch clamp on CHO cells stably expressing hERG
# 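Further: peak tail current of the secondary pulse compared with the same well before compound.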
# Sequence of human ether-à-go-go-related gene (hERG) potassium channel (Q12809 whole entry, looked up): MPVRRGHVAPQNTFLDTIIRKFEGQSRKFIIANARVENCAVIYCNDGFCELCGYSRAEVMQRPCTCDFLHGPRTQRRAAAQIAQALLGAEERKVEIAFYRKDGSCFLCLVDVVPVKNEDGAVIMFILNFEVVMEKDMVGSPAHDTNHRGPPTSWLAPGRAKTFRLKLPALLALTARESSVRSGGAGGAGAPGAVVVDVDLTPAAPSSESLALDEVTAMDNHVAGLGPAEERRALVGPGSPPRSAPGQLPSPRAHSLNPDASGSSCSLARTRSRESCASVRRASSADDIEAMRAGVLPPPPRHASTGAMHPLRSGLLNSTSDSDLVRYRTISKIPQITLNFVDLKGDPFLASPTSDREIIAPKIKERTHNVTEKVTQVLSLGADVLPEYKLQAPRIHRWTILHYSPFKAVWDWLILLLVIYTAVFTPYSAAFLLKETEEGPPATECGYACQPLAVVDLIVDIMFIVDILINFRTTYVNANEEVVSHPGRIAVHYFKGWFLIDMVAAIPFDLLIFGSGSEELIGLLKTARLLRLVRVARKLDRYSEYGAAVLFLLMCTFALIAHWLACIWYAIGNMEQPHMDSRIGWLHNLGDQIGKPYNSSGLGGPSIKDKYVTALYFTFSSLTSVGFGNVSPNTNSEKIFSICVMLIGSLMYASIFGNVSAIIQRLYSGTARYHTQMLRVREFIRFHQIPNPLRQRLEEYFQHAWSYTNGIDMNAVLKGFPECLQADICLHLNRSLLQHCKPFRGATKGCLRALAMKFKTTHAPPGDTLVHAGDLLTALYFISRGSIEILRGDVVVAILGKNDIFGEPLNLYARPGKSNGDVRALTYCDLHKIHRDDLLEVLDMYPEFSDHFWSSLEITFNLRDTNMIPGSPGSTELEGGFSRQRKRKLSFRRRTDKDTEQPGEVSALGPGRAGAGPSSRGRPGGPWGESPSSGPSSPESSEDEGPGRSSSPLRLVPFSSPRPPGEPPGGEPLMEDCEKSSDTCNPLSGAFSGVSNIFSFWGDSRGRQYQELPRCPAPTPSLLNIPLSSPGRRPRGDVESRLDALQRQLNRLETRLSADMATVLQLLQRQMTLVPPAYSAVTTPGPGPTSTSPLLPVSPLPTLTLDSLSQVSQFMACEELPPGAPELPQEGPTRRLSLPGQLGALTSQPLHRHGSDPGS
row,Structure (SMILES),"hERG current change (%, negative = inhibition) at 10uM"
1,Cc1ccccc1C(=O)NNC(=O)C1CC(=O)N(Cc2ccccc2)C1 (centres unmarked),2.19%
2,CSc1ncccc1C(=O)Nc1ccc(OC(F)(F)F)cc1,11.5%
3,C=CCSc1nc(N)cc(=O)[nH]1,0.914%
4,CC(=O)Nc1ccc(S(=O)(=O)Nc2cc(C)cn(Cc3ccccc3)c2=O)cc1,6.4%
5,CCOC(=O)C1(Cc2cccc(OC)c2)CCCN(Cc2cc(C(C)C)n[nH]2)C1 (centres unmarked),-13.8%
6,CCOC(=O)C1CCCN(C(=O)c2cc(-c3ccc(F)cc3)nc3ccccc23)C1 (centres unmarked),-33.8%
7,COc1ccccc1C(=O)NNC(=O)C(=O)Nc1ccc(C)c(Cl)c1,4.41%
8,O=[N+]([O-])c1cc(F)c(N2CCCCCC2)cc1N1CCNCC1,-33.5%
9,CC(C(=O)N(C)C1CCS(=O)(=O)C1)N1C(=O)/C(=C/c2ccc(F)cc2)SC1=S (centres unmarked),-35.7%
10,CS(=O)(=O)c1ccc(Cl)c(NC(=O)COC(=O)CNC(=O)c2ccccc2)c1,-2.97%
11,O=C(O)c1oc2ccccc2c1CSc1ccccn1,3.38%
12,CC(NC(=O)c1ccc([N+](=O)[O-])cc1Cl)C1CC2CCC1C2 (centres unmarked),-58.2%
13,COc1ccc(S(=O)(=O)N2CCCCC2)cc1NC(=O)CCNC(=O)c1ccc(Br)cc1,14.6%
14,Cn1cnc([N+](=O)[O-])c1Sc1ncnc2nc[nH]c12,1.46%
15,CC(=O)Nc1ccc(S(=O)(=O)NCC2CCC(C(=O)NCCc3ccccc3)CC2)cc1 (centres unmarked),9.92%
16,Cc1cccc(C(=O)NCC(=O)N2CCN(S(=O)(=O)c3ccc4c(c3)OCCO4)CC2)c1,-20.4%
17,COCCCNC(=O)C1CCN(S(=O)(=O)c2c(C)noc2/C=C\c2ccc(OC)cc2)CC1,-18.1%
18,CC(C)NCc1cccc([N+](=O)[O-])c1.O=C(O)C(=O)O,3.39%
19,O=C(CCN1C(=O)c2ccccc2C1=O)NCCCn1ccnc1,11.3%
20,O=C(c1cccs1)N1CCN(c2nc3ccccc3s2)CC1,0.757%
21,O=C1CN(C(=O)CSc2nnc(Nc3ccccc3)s2)c2ccccc2N1,0.255%
22,CCc1cc(=O)oc2c3c(cc(OCC(=O)NCCCC(=O)O)c12)OC(C)(C)CC3,10.5%

row,Structure (SMILES),"hERG current change (%, negative = inhibition) at 10uM"
1,CCN(Cc1cc2cc(OC)ccc2[nH]c1=O)C(=O)c1ccncc1,-21.1%
2,CCCNC(=O)N1[C@H]2CC[C@@H]1C(C(=O)OC)=C(c1cccc(C#N)c1)C2,5.29%
3,Cc1cccc(C)c1N1CCN(CCn2c(=S)[nH]c3ccccc3c2=O)CC1,29.6%
4,Cl.NS(=O)(=O)c1ccc(CCNCc2cc(Cl)ccc2OCc2ccccc2)cc1,-74.5%
5,O=S(=O)(NC(=NC1CCCCC1)c1ccccc1)c1ccccc1,-14.7%
6,Cc1nc(-c2cccc(NS(=O)(=O)c3cccc4ccccc34)c2)cs1,12.3%
7,C=CCn1c(C2CC2)n[nH]c1=S,-40.4%
8,Cc1ccc(NC2CCCN(C(=O)c3ccc(-n4ccnc4)cc3)C2)cc1C (centres unmarked),-40.2%
9,CCCCCc1cc(O)c2c3c(c(=O)oc2c1)CN(C)CC3,-33.1%
10,Cc1ccc(S(=O)(=O)c2ccc(Cl)cc2)cc1S(=O)(=O)NC(C(=O)O)C(C)C (centres unmarked),14.4%
11,CCc1csc(CCNC(=O)C2CCC(=O)N(CCOC)C2)n1 (centres unmarked),18%
12,COc1cc(OC)cc(-c2c(-c3cccs3)c3cc(-c4ccc(N(C)C)nc4)ccc3n2C)c1,10.2%
13,O=C(NCCCc1ccccc1)c1ccc(-n2cncn2)c([N+](=O)[O-])c1,-60.5%
14,CCCCNC(=S)N1CCN(Cc2ccc3c(c2)OCO3)CC1.O=C(O)C(=O)O,-11%
15,Cc1cc(-c2c(C(=O)N3CCOCC3)c(C)nn2-c2cccc(C(F)(F)F)c2)no1,-1.26%
16,CCOCCN1CCN(c2c(C)c(C)nc3cc(-c4cc(OC)cc(OC)c4)nn23)CC1,-73.3%
17,CCOc1ccc(/C=N/n2c(SC)nnc2-c2ccccc2)cc1OCC,-25.6%
18,CC(=O)Nc1cccc(NC(=O)CCNC(=O)c2ccc(Cl)cc2)c1,10.2%
19,Cc1ccc(NC(=O)c2cccc(NC(=O)/C=C/c3ccco3)c2)cc1C,4.3%
20,C=CCn1c2ccccc2c(=O)c2cc(C#CC[C@@H](C)O)ccc21,-4.94%
21,CCOc1ccc(CC(=O)Nc2ccc(S(=O)(=O)N3CCCC3)cc2)cc1,10.4%
22,CCOC(=O)N1C2=NC(C(=O)OC)=C(C(=O)OC)[C@@H]3N(Cc4ccccc4)c4ccccc4[C@]23C[C@H]1C(=O)OC,-17.1%
